{
  "source": "the supplement of paper PMC11876631",
  "proteins": {"B1": {"name": "erpA V70Q (protein)", "chain": "MSDDVALPLEFTDAAANKVKSLIADEDNPNLKLRVYITGGGCSGFQYGFTFDDQVNEGDMTIEKQGVGLQVDPMSLQYLVGGSVDYTEGLEGSRFIVTNPNAKSTCGCGSSFSI"}, "B2": {"name": "erpA L69W (protein)", "chain": "B1 chain with L69W, Q70V"}, "B3": {"name": "erpA L69A (protein)", "chain": "B1 chain with L69A, Q70V"}, "B4": {"name": "fabA M87A (protein)", "chain": "MVDKRESYTKEDLLASGRGELFGAKGPQLPAPNMLMMDRVVKMTETGGNFDKGYVEAELDINPDLWFFGCHFIGDPVMPGCLGLDAAWQLVGFYLGWLGGEGKGRALGVGEVKFTGQVLPTAKKVTYRIHFKRIVNRRLIMGLADGEVLVDGRLIYTASDLKVGLFQDTSAF"}, "B5": {"name": "fabA W88A (protein)", "chain": "B4 chain with A87M, W88A"}, "B6": {"name": "fabA L90A (protein)", "chain": "B4 chain with A87M, L90A"}, "B7": {"name": "fabA M87Q (protein)", "chain": "B4 chain with A87Q"}, "B8": {"name": "fabA M141A (protein)", "chain": "B4 chain with A87M, M141A"}, "B9": {"name": "fabA M87W (protein)", "chain": "B4 chain with A87W"}, "B10": {"name": "argA V62Q (protein)", "chain": "MVKERKTELVEGFRHSVPYINTHRGKTFVIMLGGEAIEHENFSSIVNDIGLLHSLGIRLVVQYGARPQIDANLAAHHHEPLYHKNIRVTDAKTLELVKQAAGTLQLDITARLSMSLNNTPLQGAHINVVSGNFIIAQPLGVDDGVDYCHSGRIRRIDEDAIHRQLDSGAIVLMGPVAVSVTGESFNLTSEEIATQLAIKLKAEKMIGFCSSQGVTNDDGDIVSELFPNEAQARVEAQEEKGDYNSGTVRFLRGAVKACRSGVRRCHLISYQEDGALLQELFSRDGIGTQIVMESAEQIRRATINDIGGILELIRPLEQQGILVRRSREQLEMEIDKFTIIQRDNTTIACAALYPFPEEKIGEMACVAVHPDYRSSSRGEVLLERIAAQAKQSGLSKLFVLTTRSIHWFQERGFTPVDIDLLPESKKQLYNYQRKSKVLMADLG"}, "B11": {"name": "argA V60Q (protein)", "chain": "B10 chain with V60Q, Q62V"}, "B12": {"name": "argA V60A (protein)", "chain": "B10 chain with V60A, Q62V"}, "B13": {"name": "argA V60P (protein)", "chain": "B10 chain with V60P, Q62V"}, "B14": {"name": "argA V62P (protein)", "chain": "B10 chain with Q62P"}, "B15": {"name": "accA V196A (protein)", "chain": "MSLNFLDFEQPIAELEAKIDSLTAVSRQDEKLDINIDEEVHRLREKSVELTRKIFADLGAWQIAQLARHPQRPYTLDYVRLAFDEFDELAGDRAYADDKAIVGGIARLDGRPVMIIGHQKGRETKEKIRRNFGMPAPEGYRKALRLMQMAERFKMPIITFIDTPGAYPGVGAEERGQSEAIARNLREMSRLGVPVACTVIGEGGSGGALAIGVGDKVNMLQYSTYSVISPEGCASILWKSADKAPLAAEAMGIIAPRLKELKLIDSIIPEPLGGAHRNPEAMAASLKAQLLADLADLDVLSTEDLKNRRYQRLMSYGYA"}, "B16": {"name": "eno L277P (protein)", "chain": "MSKIVKIIGREIIDSRGNPTVEAEVHLEGGFVGMAAAPSGASTGSREALELRDGDKSRFLGKGVTKAVAAVNGPIAQALIGKDAKDQAGIDKIMIDLDGTENKSKFGANAILAVSLANAKAAAAAKGMPLYEHIAELNGTPGKYSMPVPMMNIINGGEHADNNVDIQEFMIQPVGAKTVKEAIRMGSEVFHHLAKVLKAKGMNTAVGDEGGYAPNLGSNAEALAVIAEAVKAAGYELGKDITLAMDCAASEFYKDGKYVLAGEGNKAFTSEEFTHFPEELTKQYPIVSIEDGLDESDWDGFAYQTKVLGDKIQLVGDDLFVTNTKILKEGIEKGIANSILIKFNQIGSLTETLAAIKMAKDAGYTAVISHRSGETEDATIADLAVGTAAGQIKTGSMSRSDRVAKYNQLIRIEEALGEKAPYNGRKEIKGQA"}},
  "biological_target": "Escherichia coli (laboratory strain)",
  "assay": "barcode share on antibiotic plates over drug-free plates; higher = less susceptible",
  "description": "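A pool of E. coli strains, each edited to carry one amino-acid change in an essential protein, was grown for 48 h on minimal glucose agar with or without antibiotic; strain barcodes were sequenced; mean of two replicates.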",
  "key": {"[1]": {"details": "antibiotic: carbenicillin, 2× MIC (3.1 µg/mL)"}, "[2]": {"details": "antibiotic: gentamicin, 2× MIC (MIC 0.45 µg/mL)"}},
  "note": "Residue numbers refer to the chain shown, from its start. Names may count otherwise. ± gives the standard deviation of the averaged measurements. Laboratory Escherichia coli strains with one amino-acid change in an essential protein, pooled on minimal glucose agar with carbenicillin or gentamicin at twice the control MIC (plus kanamycin and chloramphenicol for the plasmids), 48 h. Fold change of barcode share against drug-free plates; higher = less susceptible. Active = above 20 in both replicates (the paper's putatively resistant). '<' = one read or none on drug, '>' = one read or none on a drug-free plate. Shares are relative, so most strains fall below 1 when a few take over. Listed are strains with at least 15 reads on both drug-free plates, and hits; most hits rest on fewer reference reads. Replicate rank correlation about 0.5. Edits are read from barcodes.",
  "data": [
    {"protein": "B1", "values": [
      {"measurement": "fold change of barcode share", "setting": "[1]", "value": "0.646 ± 0.18"}
    ]},
    {"protein": "B2", "values": [
      {"measurement": "fold change of barcode share", "setting": "[1]", "value": "0.816 ± 0.28"},
      {"measurement": "fold change of barcode share", "setting": "[2]", "value": "0.0495 ± 0.039"}
    ]},
    {"protein": "B3", "values": [
      {"measurement": "fold change of barcode share", "setting": "[1]", "value": "0.437 ± 0.16"},
      {"measurement": "fold change of barcode share", "setting": "[2]", "value": "0.0137 ± 0.0046"}
    ]},
    {"protein": "B4", "values": [
      {"measurement": "fold change of barcode share", "setting": "[1]", "value": "0.384 ± 0.19"},
      {"measurement": "fold change of barcode share", "setting": "[2]", "value": "< 0.0177"}
    ]},
    {"protein": "B5", "values": [
      {"measurement": "fold change of barcode share", "setting": "[1]", "value": "0.44 ± 0.008"},
      {"measurement": "fold change of barcode share", "setting": "[2]", "value": "0.014 ± 0.005"}
    ]},
    {"protein": "B6", "values": [
      {"measurement": "fold change of barcode share", "setting": "[1]", "value": "0.594 ± 0.037"},
      {"measurement": "fold change of barcode share", "setting": "[2]", "value": "0.00621 ± 0.0026"}
    ]},
    {"protein": "B7", "values": [
      {"measurement": "fold change of barcode share", "setting": "[1]", "value": "0.277 ± 0.24"},
      {"measurement": "fold change of barcode share", "setting": "[2]", "value": "< 0.014"}
    ]},
    {"protein": "B8", "values": [
      {"measurement": "fold change of barcode share", "setting": "[1]", "value": "0.339 ± 0.053"},
      {"measurement": "fold change of barcode share", "setting": "[2]", "value": "0.0211 ± 0.022"}
    ]},
    {"protein": "B9", "values": [
      {"measurement": "fold change of barcode share", "setting": "[1]", "value": "0.488 ± 0.034"},
      {"measurement": "fold change of barcode share", "setting": "[2]", "value": "0.0394 ± 0.042"}
    ]},
    {"protein": "B10", "values": [
      {"measurement": "fold change of barcode share", "setting": "[1]", "value": "0.385 ± 0.014"},
      {"measurement": "fold change of barcode share", "setting": "[2]", "value": "0.0116 ± 0.0087"}
    ]},
    {"protein": "B11", "values": [
      {"measurement": "fold change of barcode share", "setting": "[1]", "value": "0.585 ± 0.24"}
    ]},
    {"protein": "B12", "values": [
      {"measurement": "fold change of barcode share", "setting": "[1]", "value": "0.444 ± 0.1"},
      {"measurement": "fold change of barcode share", "setting": "[2]", "value": "0.0322 ± 0.024"}
    ]},
    {"protein": "B13", "values": [
      {"measurement": "fold change of barcode share", "setting": "[1]", "value": "0.528 ± 0.033"},
      {"measurement": "fold change of barcode share", "setting": "[2]", "value": "0.00933 ± 0.0081"}
    ]},
    {"protein": "B14", "values": [
      {"measurement": "fold change of barcode share", "setting": "[1]", "value": "1.16 ± 0.21"}
    ]},
    {"protein": "B15", "values": [
      {"measurement": "fold change of barcode share", "setting": "[1]", "value": "0.257 ± 0.043"},
      {"measurement": "fold change of barcode share", "setting": "[2]", "value": "0.0546 ± 0.068"}
    ]},
    {"protein": "B16", "values": [
      {"measurement": "fold change of barcode share", "setting": "[1]", "value": "0.258 ± 0.11"},
      {"measurement": "fold change of barcode share", "setting": "[2]", "value": "< 0.00403"}
    ]}
  ]
}
